Measurements from the supplement of paper PMC3334620.
Whole data set: some 33,000 sequences, median “E-score (-0.5 to 0.5)” near -0.04, cut for the highest 2% near 0.36. This is one part of the list.

target: T1, Hmlalpha2 (UniProt P0CY09); experiment: PBM E-score (8-mer binding enrichment) (E-score (-0.5 to 0.5)); higher = stronger / more preferred TF binding; most listed sequences are background and not binding sites; settings: protein concentration: 200 nM; construct: GST-full length
T1 sequence: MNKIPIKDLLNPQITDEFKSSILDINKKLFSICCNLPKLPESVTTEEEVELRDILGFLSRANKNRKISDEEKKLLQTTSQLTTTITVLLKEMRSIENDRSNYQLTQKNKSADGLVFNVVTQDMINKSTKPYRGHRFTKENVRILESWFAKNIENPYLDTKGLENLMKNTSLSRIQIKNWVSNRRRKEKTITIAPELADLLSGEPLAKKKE
How it was run: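 Full-length yeast transcription factors or their DNA-binding domains, GST-tagged and expressed with PURExpress, were applied at about 100-200 nM to universal all-10-mer Agilent arrays. These arrays had been made double-stranded by primer extension on fresh or once-stripped slides. Detection used fluorescent anti-GST, normalisation used masliner, and E-scores for ungapped eight-base words pooled with reverse complements came from the Universal PBM Analysis Suite.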

Sequence	PBM E-score
CGTTTAAC	0.365
CGAGCTAG	0.0549
ATGACAAA	0.145
GCATTCAC	0.0435
ACATCGGC	0.0159
AAGAATAA	0.204
ACAATAGT	0.0925
GCAAAGAC	-0.121
AAACTTCG	0.143
AACAGACG	-0.0138
ACTTGGAA	-0.144
ACGGCAAG	-0.0844
CCAGACGA	-0.072
ATCTGGCA	-0.00874
AATGCCAC	-0.321
GTCGTATA	0.184
CTACATGC	0.429
AAGGAGCT	-0.163
AATGGAAC	-0.0113
AAGAATAG	0.0538
ACCAGAGC	-0.00515
AACTCAAG	0.0624
GCGACCCC	-0.205
ACTTGGCG	-0.0588

Sequence	PBM E-score
AGTTGGTA	0.231
CGAAAGCG	-0.123
AGGGCTCC	-0.39
GGGACATA	-0.191
CCTTGTCG	0.124
ATCTCATG	0.141
CGTCGTAC	0.149
ACTGGAGC	-0.218
GGCACGAA	-0.0458
AATTAAGT	0.215
CAGATCTG	-0.0129
CGACAAAC	0.0428
AATTCAGA	0.0727
TGACCTCA	-0.207
CACGGGGG	-0.121
CTTGGCAA	-0.143
GGAGTACA	0.129
CAATGCTG	0.0578
ACAAAACT	0.257
GGAATTCA	0.105
CAAAAGCG	-0.045
AATCTAGG	0.0173
ACAGTGTG	0.0915
AGCGTGTA	0.472

Sequence	PBM E-score
GTTGATCA	0.211
CCAAAAGG	-0.136
GAATAGAC	-0.0252
GAAACCGA	-0.197
ACTGATGA	-0.0022
GTGGGTGA	-0.154
ACATAATA	0.362
CCTCAATC	0.0418
CCAGCAGA	-0.057
CTGCAAGC	-0.184
CTGATCAA	-0.234
CATCGGAG	-0.113
ACAAATTC	0.0996
CAATCGGC	-0.156
CAGTATTC	0.0159
CCAAGCTC	-0.0156
CACAATAA	-0.0303
GCCGCACC	-0.103
CCTGACAG	-0.111
GCCAAACA	-0.107
TGTGCCAA	0.0662
GCCGAAAA	0.0332
CTGTACGC	0.16
CTAGTGCA	-0.0988

Sequence	PBM E-score
AGTCAACT	-0.172
GCTCGGCC	-0.31
GCAAAGCA	-0.0829
CTATCGAC	-0.217
AATCGGGA	-0.0331
AGGGCTCA	-0.0529
ACAGTACT	0.125
CTCCCGTC	0.0214
CTGGAGCA	-0.292
GACGGCTC	-0.188
CCTATCTC	-0.186
TATGGCAA	0.0269
AAATACCC	-0.0433
AAGCTTGT	0.332
CCTGATCC	-0.332
CGAGCTTA	-0.113
GCCGTCAA	0.0499
AAGGTTTG	0.00619
AGCGACAA	0.00782
GTTTGGCA	-0.0431
CTTCTGCC	-0.181
AAGTTCGA	0.127
